Molecules are shown by their SMILES. Among all 310,000 compounds or so, about 2,200 (0.71%) showed an effect of 50% or more. Effects have a minus sign here. Some of the results follow.

Experimental findings from paper PMC4336329 (PLoS ONE, 2015) are described below.

This experiment deals with human ether-à-go-go-related gene (hERG) potassium channel (human, UniProt Q12809). Briefly: primary screen, population patch clamp on CHO cells stably expressing hERG.
human ether-à-go-go-related gene (hERG) potassium channel, sequence (Q12809 whole entry, looked up): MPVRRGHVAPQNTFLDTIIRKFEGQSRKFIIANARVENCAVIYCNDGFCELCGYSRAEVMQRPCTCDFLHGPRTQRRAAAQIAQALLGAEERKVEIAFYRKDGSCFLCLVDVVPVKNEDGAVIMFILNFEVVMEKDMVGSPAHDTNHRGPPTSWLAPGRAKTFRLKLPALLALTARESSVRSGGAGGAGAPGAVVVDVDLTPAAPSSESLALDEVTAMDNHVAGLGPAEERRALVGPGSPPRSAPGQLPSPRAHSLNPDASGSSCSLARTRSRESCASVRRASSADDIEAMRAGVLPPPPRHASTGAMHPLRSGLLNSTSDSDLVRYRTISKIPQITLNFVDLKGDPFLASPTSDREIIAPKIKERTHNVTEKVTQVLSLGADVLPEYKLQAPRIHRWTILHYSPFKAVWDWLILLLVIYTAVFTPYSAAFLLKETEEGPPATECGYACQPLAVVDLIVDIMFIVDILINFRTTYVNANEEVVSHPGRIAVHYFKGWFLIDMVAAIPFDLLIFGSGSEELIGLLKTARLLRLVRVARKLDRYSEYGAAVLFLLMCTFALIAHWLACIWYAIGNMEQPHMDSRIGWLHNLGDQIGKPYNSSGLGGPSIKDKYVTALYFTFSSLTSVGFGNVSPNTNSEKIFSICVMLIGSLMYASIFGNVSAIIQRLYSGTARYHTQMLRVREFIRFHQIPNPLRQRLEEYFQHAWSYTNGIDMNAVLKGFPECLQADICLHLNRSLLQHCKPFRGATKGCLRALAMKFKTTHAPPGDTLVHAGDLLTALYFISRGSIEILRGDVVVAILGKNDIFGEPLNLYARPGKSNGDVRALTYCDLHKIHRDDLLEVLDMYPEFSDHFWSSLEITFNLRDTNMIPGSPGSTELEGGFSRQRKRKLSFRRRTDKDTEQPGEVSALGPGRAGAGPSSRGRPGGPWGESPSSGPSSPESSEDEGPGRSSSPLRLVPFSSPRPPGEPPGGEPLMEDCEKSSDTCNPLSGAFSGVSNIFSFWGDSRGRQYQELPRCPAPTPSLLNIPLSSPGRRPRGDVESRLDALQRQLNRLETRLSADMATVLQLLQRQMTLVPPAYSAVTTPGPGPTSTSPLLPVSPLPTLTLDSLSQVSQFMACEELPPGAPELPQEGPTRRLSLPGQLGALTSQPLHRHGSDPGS
As to `COC(=O)C1=C(O)/C(=C\c2sccc2C)N=C1C`, the “hERG current change (%, negative = inhibition) at 1uM” value came out at 12.4%.

`CCc1nnc(N/N=C/c2c(C)[nH]c3ccccc23)n1N.Cl`: the “hERG current change (%, negative = inhibition) at 1uM” value is 28.8%.

In the case of `COC(=O)c1ccc(CSCc2ccc(C#N)cc2)cc1`, the “hERG current change (%, negative = inhibition) at 1uM” value is recorded as 16.3%.

Take `O=C(Cc1ccccc1[N+](=O)[O-])N1CCN(c2ccc(F)cc2)CC1`: the “hERG current change (%, negative = inhibition) at 1uM” value was 11%.

Take `C=CCc1cc(/C=C2/NC(=S)NC2=O)cc(OC)c1O`: the “hERG current change (%, negative = inhibition) at 1uM” value stood at 10.1%.

`COC(=O)/C=C1/S/C(=N/NC(=O)c2ccc(OC)cc2)NC1=O`: the “hERG current change (%, negative = inhibition) at 1uM” value is given as 14.6%.

Take `O=C(CCCCCNC(=O)N1CCn2c1nc1ccccc12)N[C@H](C(=O)O)c1ccccc1`: the “hERG current change (%, negative = inhibition) at 1uM” value worked out at 18%.

Take `CCOC(=O)c1cnc(-n2nc(C)cc2C)nc1N1CCOCC1`: the “hERG current change (%, negative = inhibition) at 1uM” value was determined as 1.69%.

On to `CCCCn1c(SCC(=O)N2CCOCC2)nnc1-c1ccoc1C`, for which the “hERG current change (%, negative = inhibition) at 1uM” value was 5.74%.

Regarding `COC(=O)c1ccccc1N(C)C(=O)C12CCC(C)(C(=O)O1)C2(C)C` (stereo not shown), the “hERG current change (%, negative = inhibition) at 1uM” value came to 16.6%.

As to `O=C(O)Cn1nc(-c2ccc(Cl)cc2)ccc1=O`, the “hERG current change (%, negative = inhibition) at 1uM” value is recorded as 10.5%.

For the compound `Cc1ccc(NC(=O)N2CCC(c3nc4c(nnn4Cc4cccc(Cl)c4)c(=O)[nH]3)CC2)cc1`, the “hERG current change (%, negative = inhibition) at 1uM” value came to 1.19%.

With `CCS(=O)(=O)N1CCC(C(=O)NCCc2ccc(C)cc2)CC1`, the “hERG current change (%, negative = inhibition) at 1uM” value is listed as 15.3%.

In the case of `COc1ccc(-c2cc3ncnc(Cl)c3s2)cc1`, the “hERG current change (%, negative = inhibition) at 1uM” value amounted to 18%.

`CCC(Oc1nc2ccccc2nc1-c1ccccc1NC(C)=O)C(=O)c1ccccc1` (stereo not shown): the “hERG current change (%, negative = inhibition) at 1uM” value is -2.71%.

Turning to `S=C1NCN(Cc2ccco2)CN1c1ccccc1`, the “hERG current change (%, negative = inhibition) at 1uM” value was found to be 14.5%.

Regarding `Cc1ccc(C(=O)N/C(=C/c2ccc(-c3cccc([N+](=O)[O-])c3)o2)C(=O)NC(C)C)cc1`, the “hERG current change (%, negative = inhibition) at 1uM” value is 10.1%.

`COc1ccccc1N1CCN(C(=O)CCS(=O)(=O)c2ccc3c(c2)NC(=O)C(C)S3)CC1` (stereo not shown): the “hERG current change (%, negative = inhibition) at 1uM” value is given as 14.3%.

As to `C=C(C)c1cccc(C(C)(C)NC(=O)N2CCC(C)CC2)c1`, the “hERG current change (%, negative = inhibition) at 1uM” value turned out to be 12.6%.

As to `COc1ccc(-n2cc(CN(C)C(C)c3ccncn3)c(-c3cccc(F)c3)n2)cc1` (stereo not shown), the “hERG current change (%, negative = inhibition) at 1uM” value is reported as -6.58%.

With `CN1C(=O)/C(=C/c2cccc(Cl)c2)Sc2ccc(C(=O)N3CCCC3)cc21`, the “hERG current change (%, negative = inhibition) at 1uM” value is listed as 0.412%.

Take `COc1ccc(Nc2ccc([N+](=O)[O-])c3nonc23)c(OC)c1`: the “hERG current change (%, negative = inhibition) at 1uM” value is listed as 14.2%.

On to `CCOC(=O)c1ccc(NS(=O)(=O)c2ccc3c(c2)NC(=O)CCS3)cc1`, for which the “hERG current change (%, negative = inhibition) at 1uM” value turned out to be 15.6%.

On to `CCOC(=O)c1ccc(NC(=S)N2CCN(c3ccc(N4CCOCC4)nn3)CC2)cc1`, for which the “hERG current change (%, negative = inhibition) at 1uM” value was 5.86%.

As for `Cc1ccc2nc(C(=O)N3CCCC(Nc4ccc(F)cc4)C3)cn2c1` (stereo not shown), the “hERG current change (%, negative = inhibition) at 1uM” value was determined as 10.7%.

In the case of `Cl.OC(Cc1ccccc1)(c1ccccc1)C1CN2CCC1CC2` (stereo not shown), the “hERG current change (%, negative = inhibition) at 1uM” value was -23.8%.

For the compound `Cc1ccc(NC(=O)c2ccc3c(c2)[nH]c(=O)n3C(C)C)cc1`, the “hERG current change (%, negative = inhibition) at 1uM” value was 9.8%.

Take `CCOc1ccc(NS(=O)(=O)c2ccc(NC(=O)C3CCCO3)cc2)cc1` (stereo not shown): the “hERG current change (%, negative = inhibition) at 1uM” value came to 18.1%.

Regarding `Cc1ccc(NC(=O)c2ccc(COc3ccccc3[N+](=O)[O-])o2)nc1`, the “hERG current change (%, negative = inhibition) at 1uM” value is listed as 10.4%.

Turning to `Cc1ccc(NC(=O)N2CCSc3ccccc32)cc1`, the “hERG current change (%, negative = inhibition) at 1uM” value came to 7.09%.

For `C=CCN1C(=O)/C(=C/c2ccc(N3CCOCC3)o2)C(=O)NC1=S`, the “hERG current change (%, negative = inhibition) at 1uM” value is recorded as -2.59%.

For the compound `COc1ccc(-c2ccc(N(C)C)cc2)cc1[C@H]1[C@H]2C=CC[C@@H](C)[C@@H]2C(=O)N1Cc1ccccc1`, the “hERG current change (%, negative = inhibition) at 1uM” value is 12.1%.

Regarding `O=P(O)(O)O.c1ccc(CN(CC2=NCCN2)c2ccccc2)cc1`, the “hERG current change (%, negative = inhibition) at 1uM” value is reported as 7.67%.

Turning to `O=C(O)Cn1cnc2scc(-c3ccccc3)c2c1=O`, the “hERG current change (%, negative = inhibition) at 1uM” value is 18.3%.

For the compound `COc1ccc(C(C)=O)cc1CSCCC(=O)O`, the “hERG current change (%, negative = inhibition) at 1uM” value came to 15%.

With `CCOc1ccc(S(=O)(=O)N2CC(=O)Nc3ccccc32)cc1C#N`, the “hERG current change (%, negative = inhibition) at 1uM” value turned out to be 6.22%.

With `CN(CC(=O)N1CCN(c2ncccn2)CC1)S(=O)(=O)c1ccc(Cl)cc1`, the “hERG current change (%, negative = inhibition) at 1uM” value came to 2.66%.

Regarding `Cc1cc(=O)[nH]c(SCc2cccc3ccccc23)n1`, the “hERG current change (%, negative = inhibition) at 1uM” value is given as 18.5%.

Take `CCOC(=O)c1ccc(N/C(=N/S(=O)(=O)c2ccccc2)c2ccccc2)cc1`: the “hERG current change (%, negative = inhibition) at 1uM” value is on record as 0.804%.

Regarding `Cc1ccc(NC(=O)c2cc(NC(=O)CCC(=O)O)ccc2N2CCCCC2)cc1`, the “hERG current change (%, negative = inhibition) at 1uM” value is recorded as 11.9%.

With `O=c1[nH]c2c(c(=O)n1Cc1ccccc1)CCC2`, the “hERG current change (%, negative = inhibition) at 1uM” value stood at 7.82%.

Take `Cc1cc(C)c(NC(=O)CSc2nc3ccc(N4C(=O)c5ccccc5C4=O)cc3s2)c(C)c1`: the “hERG current change (%, negative = inhibition) at 1uM” value is 17.9%.

For `CCc1cccc(C)c1NC(=O)CCCSc1nc2ccccc2s1`, the “hERG current change (%, negative = inhibition) at 1uM” value was determined as 14.3%.
